Hit rate of the full screen: of about 140,000 compounds, about 240 (0.17%) were called active. The inconclusive results got no clear call from the source; some entries with a clear call stand among them for comparison. Calls follow the shape of the dose curve; as a rule, active = well fitted inhibition curve with a large enough effect; inconclusive = small, poorly fitted or top-dose-only effect; inactive = no such curve, though single readings can be large or run the other way. A potency beside an inconclusive call is a rough fit, not a confirmed value.
test: Primary qHTS assay for inhibitors of alpha-synuclein gene (SNCA) expression; conditions: HEK-293 SNCA-luciferase knock-in, luminescence, 24 h; activity change, negative = inhibition: at 57.2 µM (top of the series); also: nearly all actives have a fitted effect of over 45% in size;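 as to activity change, negative = inhibition: plate controls were DMSO cells for no effect and cell-free wells for full effect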
Potency is read from the fitted curve at half-maximal effect; tags tell the direction and shape of the fitted curve.

Row | Compound | Potency | activity change, negative = inhibition
1 | COc1ccccc1-c1cc([C@H]2CN3CC[C@H]2C[C@@H]3COC(=O)NC2CCCCC2)nc(C)n1 | inconclusive: 25.1 µM [inhibitor, single point] | 
2 | O=C1CO[C@H]2CN(Cc3ccco3)C[C@H]2N1Cc1cccnc1 |  | inactive: 10.1% [at 87.6 µM]
3 | COc1cc2c(cc1OCc1ccccc1)NC(=O)C21CCN(C(=O)c2ccccc2)CC1 |  | inactive: -13.4%
4 | COc1ccccc1-c1nn2c(=O)cc(CN3CCN(C(=O)COc4ccccc4Cl)CC3)nc2s1 | inconclusive: 39.8 µM [inhibitor, single point] | 
5 | Cc1ccccc1-c1nc(CN2C(=O)CN=C(c3ccccc3)c3ccccc32)c(C)o1 | inconclusive: 0.178 µM [inhibitor, full curve, poor fit] | 
6 | FC(F)(F)CN1C2CCC1CN(c1nnc(Cl)c3ccccc13)C2 |  | inactive: 22.8%
7 | COc1cc2c(cc1CCc1ccccc1)N(C(=O)C1CCC(C)CC1)CC21CCN(C(C)=O)CC1 (stereo not given) | inconclusive: 17.8 µM [inhibitor, single point] | 
8 | Cc1ncc2c(n1)C[C@@H]1CC[C@H]2N1C(=O)c1cnccn1 | inconclusive: 39.8 µM [inhibitor, single point] | 
9 | CCNC(=O)NC[C@H]1C[C@@H]2CCN1C[C@@H]2c1cc(C2CCCCC2)nn1C |  | inactive: 1.99% [at 87.6 µM]
10 | O=C(NC[C@H]1C[C@@H]2CCN1C[C@@H]2CN1CCC(Cc2ccccc2)CC1)Nc1ccccc1 | inconclusive: 7.08 µM [inhibitor, single point] | 
11 | COc1ccc(-c2cn(C[C@H]3C[C@@H]4CCN3C[C@@H]4C(=O)NC3CC3)nn2)cc1 |  | inactive: 41% [at 87.6 µM]
12 | CC(C)(C)c1ccc(-c2cn(C[C@H]3CC4CCN3C[C@@H]4C(=O)Nc3ccccc3)nn2)cc1 (stereo not given in full) |  | inactive: 11.9%
13 | COc1cc2c(cc1OCC1CC1)NC(=O)C21CCN(c2ccnc(C)n2)CC1 |  | inactive: -7.61% [at 87.6 µM]
14 | Cc1noc(C)c1Cc1ccc(C(=O)N2[C@H]3CC[C@@H]2c2cnc(-c4ccccc4)nc2C3)o1 |  | inactive: 0.669%
15 | C=CCN(C)C(=O)[C@H]1CN2CCC1C[C@@H]2Cn1cc(CO)nn1 (stereo not given in full) |  | inactive: 13% [at 87.6 µM]
16 | Cn1nc(-c2ccc3ccccc3c2)cc1[C@H]1CN2CC[C@H]1C[C@@H]2COC(=O)Nc1ccccc1 | inconclusive: 22.4 µM [inhibitor, single point] | 
17 | COc1cc2c(cc1OCc1ccccc1)N(C(=O)C1CCC(C)CC1)CC21CCN(C)CC1 (stereo not given) | inconclusive: 17.8 µM [inhibitor, single point] | 
18 | CN1C(=O)CO[C@H]2CN(Cc3ccccn3)C[C@H]21 |  | inactive: 24.9% [at 87.6 µM]
19 | CN1c2ncccc2CN(Cc2ccccc2)CC[C@H]1CO |  | inactive: 13.1% [at 87.6 µM]
20 | Cc1cc(C)cc(NC(=O)CN2C(=O)CN=C(c3ccccc3)c3cc(Cl)ccc32)c1 | inconclusive: 28.2 µM [inhibitor, single point] | 
21 | CC(C)NC(=O)NC[C@H]1C[C@@H]2CCN1C[C@@H]2CN1CCOCC1 |  | inactive: 11% [at 87.6 µM]
22 | C=C[C@H]1CN2CC[C@H]1C[C@@H]2CNC(=O)Nc1ccc(OC(F)(F)F)cc1 | inconclusive: 44.7 µM [inhibitor, partial curve, poor fit] | 
23 | CC1(C(=O)O)C2CCC(O2)C1(C)C(=O)O (stereo not given) | inconclusive: 5.62 µM [inhibitor, full curve, poor fit] | 
24 | O=C(NC[C@H]1C[C@@H]2CCN1C[C@@H]2CN1CCN(c2ccc(F)cc2)CC1)Nc1cccc(F)c1 | inconclusive: 1.41 µM [inhibitor, full curve, poor fit] | 
25 | CCOC(=O)[C@H]1CN([S+](=O)([O-])c2cccs2)[C@]2(C)C(=O)N(CC3CC3)c3ccccc3[C@H]12 | inconclusive: 17.8 µM [inhibitor, single point] | 

Reference: PubChem BioAssay AID1671194 (National Center for Advancing Translational Sciences (NCATS), 2021)
